Data reported in paper PMC12040169 (PLOS Biology, 2025).
Some of the results follow.

What follows are compounds tested on T1, C. trachomatis L2/434/Bu expressing GFP (CTL2-GFP). Conditions: total inclusion area; 28.5 h, 10 µM; inhibitor.
T1 construct: L2/434/Bu GFP intracellular growth in HeLa cells
Parameters: species or system HeLa; C. trachomatis total inclusion area by high-content imaging, normalised to DMSO
Excerpt: In this process, we also complemented the assay described above with an imaging-based readout (Fig 1B). After measurements of bulk GFP and resorufin fluorescence, cells were fixed, stained with the DNA dye Hoechst, and imaged at a high-content imaging platform to detect chlamydial inclusions (GFP) and host cell nuclei (Hoechst). The total area and number of inclusions in individual wells and the number of nuclei then served as additional proxies for chlamydial growth and host cell viability. […] MICs were calculated as described above.

SMILES	% of control remaining
CCC(C)C(NC(=O)Cc1c[nH]c2ccccc12)C(=O)O (centres unmarked) [CBK286720]	80.2724
O=C(C1=C(O)C(=O)N(CCCn2ccnc2)C1c1ccc(Br)cc1)c1ccc2c(c1)OCCO2 (centres unmarked) [CBK266081]	0
c1nn(C2CCCCC2)cc1-c1cncn1CCCN1CCCCC1 [CBK281495]	65.7777
Cc1ccc2nc(O)c(C3=NN(C(=O)CCC(=O)O)C(c4ccco4)C3)c(-c3ccccc3)c2c1 (centres unmarked) [CBK267544]	103.515
NC(=O)c1ccc(NC(=O)CCCc2nc(-c3ccccc3Cl)no2)cc1 [CBK268932]	114.473
COc1ccc(CNCc2ccc(Cl)cc2)cc1OC [CBK263315]	106.792
Cc1cccc(OC(C)C(=O)Nc2ccc(S(=O)(=O)N3CCOCC3)cc2)c1 (centres unmarked) [CBK269609]	68.336
Cc1onc(-c2ccccc2)c1CNC(=O)c1cscn1 [CBK144089]	96.708
O=C(O)c1ccc(NS(=O)(=O)c2cccs2)cc1O [CBK092145]	120.279
CCOc1ccccc1N(CC(=O)Nc1ccc(C)cc1C)S(C)(=O)=O [CBK263799]	104.986
O=C1CC(c2ccccc2)CC(NCc2ccccc2)=C1C(=S)Nc1ccccc1 (centres unmarked) [CBK264491]	89.0444
COc1ccccc1-c1ccc(CC2(C(=O)NCCc3ccccc3)CCOCC2)cc1 [CBK286516]	86.5371
Cc1cccc(-c2nc(C3CCCNC3)n3ccccc23)c1 (centres unmarked) [CBK035528]	82.523
COc1cccc(CNC(C(=O)O)c2ccc3c(c2)OCO3)c1 (centres unmarked) [CBK015420D]	24.6805
O=C(COc1ccc2oc3ccccc3c2c1)c1ccccc1 [CBK268931]	102.681
Cc1csc(-c2ccc(C(=O)N(C)CCN(C)C)c(N(C)C)n2)c1 [CBK106088]	84.3583
c1cc(COc2cncc(N3CCCC3)n2)cs1 [CBK115669]	111.996
N#Cc1ccc(CNC2(Cc3cc(C(=O)N4CCCCC4)on3)COC2)cc1 [CBK289672]	110.316
CCCc1cc(C(N)=O)c(NC(=O)c2sc3ccccc3c2Cl)s1 [CBK268178]	89.9489
CN(C(=S)NCc1ccccc1)C1CC[C@@]2(c3ccc(F)cc3)CCN(C)[C@H]2C1 (some centres unmarked) [CBK003500C]	88.2358
Cc1cc(N2CCC(c3cc(CCOc4ccc(Cl)cc4)[nH]n3)C2)nc(C)n1 (centres unmarked) [CBK286119]	56.885

SMILES	% of control remaining
O=C(CC1CCCO1)N1CCn2c(nnc2-c2cncc(Br)c2)C1 (centres unmarked) [CBK304762]	101.614
O=S(=O)(Nc1cccc2[nH]ccc12)c1ccc(F)cc1 [CBK153522]	85.5967
COc1cc(=O)n(C)c(C)n1 [CBK007924]	114.719
COCc1nc2n(n1)CC(NC1CCCCc3ccccc31)CC2 (centres unmarked) [CBK304445]	66.1648
O=C(c1ccc(F)cc1)[C@H]1CCCN(C(=O)c2n[nH]c3c2CCC3)C1 [CBK282322]	90.8761
Cc1cc(C)n(C(C)CC(=O)Nc2cccc(OC(C)C)c2)n1 (centres unmarked) [CBK281538]	99.1275
CCN(CC)C(=O)C1CCCN(C(=O)Nc2ccc(Cl)cc2)C1 (centres unmarked) [CBK156136]	112.077
CCC(Sc1nnc(-c2ccc([N+](=O)[O-])cc2)n1C)C(=O)Nc1ccc(Cl)cc1 (centres unmarked) [CBK265785]	84.2221
Nc1nc(/C=C/c2cccs2)nc(-c2ccccc2O)n1 [CBK270033]	88.5466
CCOc1cc(/C=C2/SC(=S)N(c3cccc(Cl)c3)C2=O)ccc1OCC(=O)O [CBK264966]	83.959
O=C(O)CCc1ccc(S(=O)(=O)NCc2ccccc2)cc1 [CBK287054]	73.6354
COc1ccnc(N2CCN(C(=O)c3ccncc3Cl)CC2)n1 [CBK304367]	50.8931
CS(=O)(=O)Nc1nccnc1OC1CCN(CC2CCCCC2)CC1 [CBK084284]	89.9022
O=c1c2cnc3ccnn3c2ccn1C1CCCC1 [CBK288074]	6.4521
Cc1nc(-c2ccccc2)sc1CNC(=O)/C=C\C(=O)Nc1ccc(F)cc1 [CBK092357]	111.417
CC(Cn1cccn1)C(=O)N1CCc2sccc2C1C (centres unmarked) [CBK282074]	90.3915
CN(C)c1cccc(Nc2cc(-c3cccc([N+](=O)[O-])c3)ncn2)c1 [CBK091012]	88.4662
Cc1ccc(Cl)cc1N(CC(=O)Nc1ccccc1C(=O)O)S(C)(=O)=O [CBK264020]	128.477
O=C(NCCCn1ccnc1)c1cc(-c2ccccc2Cl)nc2ccccc12 [CBK262656]	106.918
O=C(NCc1cccs1)C1(c2ccccc2)CCCC1 [CBK149533]	110.696
